In PubChem BioAssay (NCATS):
Inconclusive results, whose numbers are uncertain, are shown with a selection of clear calls. Where the call is inconclusive, the potency comes from a doubtful curve fit. Active and inactive are the calls of the source. Calls follow the shape of the dose curve; as a rule, active = well fitted curve in the direction sought with a large enough effect; inconclusive = small, poorly fitted or top-dose-only effect, or another doubt; inactive = no such curve, though single readings can be large; an effect the other way counts as inactive or inconclusive.
Potency is read from the fitted curve at half-maximal effect; tags tell the direction and shape of the fitted curve.

Test: qHTS Assay for Identifying Gametocytocidal Compounds (AID 743244)
Conditions: P. falciparum 3D7 stage III-V gametocytes, alamarBlue, 72 h; max response: active compounds read low
Method in brief: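 Stage III-V P. falciparum 3D7 gametocytes, 20,000 per well, were exposed to compounds for 72 h at 37C, 5% CO2. AlamarBlue was then added for 24 h and viability was read as fluorescence at Ex 525/Em 598 nm.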
With `Cc1ccc(C(=O)Nc2ccc(CN3CCN(C)CC3)c(C(F)(F)F)c2)cc1C#Cc1cnc2cccnn12` the Potency was active: 18.7 µM. In the case of `CCn1c(-c2nonc2N)nc2c(C#CC(C)(C)O)ncc(OC[C@H]3CCCNC3)c21`, the Potency was active: 23.5 µM. For `CC(=O)c1c(C)c2cnc(Nc3ccc(N4CCNCC4)cn3)nc2n(C2CCCC2)c1=O`, the Potency was active: 7.43 µM. For `CC1(O)CC(c2nc(-c3ccc4ccc(-c5ccccc5)nc4c3)c3c(N)nccn23)C1` (configuration not stated), the Potency was inconclusive: 46.9 µM [inhibitor, single point]. For `Cc1ccc(-c2ncn(-c3ccc(Nc4nccc(-c5cccc(N6CCOCC6)c5)n4)cc3)n2)cn1`, the Potency was active: 11.8 µM. In the case of `Cc1cn(-c2cc(NC(=O)c3ccc(C)c(Nc4nccc(-c5cccnc5)n4)c3)cc(C(F)(F)F)c2)cn1`, the Potency was inconclusive: 46.9 µM [inhibitor, single point]. With `COc1cc(NCc2ccc3nc(N)nc(N)c3c2C)cc(OC)c1OC` the Potency was inconclusive: 25.1 µM [inhibitor, single point]. With `COc1cc(OC2CCN(C)CC2)ccc1Nc1ncc2c(n1)n(C1CCCC1)c(=O)n2C` the Potency was inconclusive: 23.5 µM [inhibitor, single point]. For `c1ccc([C@H]2CN3CCSC3=N2)cc1`, the Potency was inconclusive: 20 µM [inhibitor, partial curve].

Test: qHTS Screen of the MIPE 4.0 Collection Against Ewings Sarcoma (TC71) (AID 1259253); also: nearly all actives have a fitted effect of over 40% in size
Conditions: TC71 Ewing sarcoma viability, CellTiter-Glo, 48 h; series mostly up to 45.8 µM
Method in brief: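 Viability screen: 48 h incubation at 37C, 95% humidity, 5% CO2 with serially titrated compound, followed by CellTiter-Glo readout.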
In the case of `O=C(NC1CCNCC1)c1[nH]ncc1NC(=O)c1c(Cl)cccc1Cl`, the Potency was active: 0.264 µM. With `Nc1cccc2c1CN(C1CCC(=O)NC1=O)C2=O` (configuration not stated) the Potency was inconclusive: 0.605 µM [inhibitor, full curve, poor fit]. In the case of `Cc1ccccc1C(=O)c1ccc(Nc2ccc(Br)cc2N)cc1Cl`, the Potency was active: 16.6 µM. For `CCOc1cc(N)c(Cl)cc1C(=O)NCC1CN(Cc2ccc(F)cc2)CCO1` (configuration not stated), the Potency was “inactive”. In the case of `Cc1ccc(C(=O)Nc2ccc(CN3CCN(C)CC3)c(C(F)(F)F)c2)cc1C#Cc1cnc2cccnn12`, the Potency was active: 4.69 µM. With `O=S(=O)(O)CCS` the Potency was “inactive”. With `Cc1ccc(Nc2nccc(N(C)c3ccc4c(C)n(C)nc4c3)n2)cc1S(N)(=O)=O` the Potency was inconclusive: 29.6 µM [inhibitor, single point]. In the case of `COc1ccc2nc(S(=O)Cc3ncc(C)c(OC)c3C)[nH]c2c1` (configuration not stated), the Potency was inconclusive: 33.2 µM [inhibitor, single point]. In the case of `Cc1c(-c2ccc(O)cc2)n(Cc2ccc(OCCN3CCCCCC3)cc2)c2ccc(O)cc12`, the Potency was “inactive”. With `Cc1csc(-c2nnc(Nc3ccc(Oc4ncccc4-c4ccnc(N)n4)cc3)c3ccccc23)c1` the Potency was inconclusive: 0.0037 µM [inhibitor, full curve, poor fit]. For `CCn1c(-c2nonc2N)nc2c(C#CC(C)(C)O)ncc(OC[C@H]3CCCNC3)c21`, the Potency was active: 18.7 µM. For `CC(=O)c1c(C)c2cnc(Nc3ccc(N4CCNCC4)cn3)nc2n(C2CCCC2)c1=O`, the Potency was active: 5.26 µM. In the case of `C[C@H]1O[C@H](O[C@H]2[C@H](O)[C@@H](O)[C@@H](O[C@H]3[C@H](O)[C@@H](O)C(O)O[C@H]3CO)O[C@H]2CO)[C@H](O)[C@@H](O)[C@H]1N[C@H]1C=C(CO)[C@@H](O)[C@H](O)[C@@H]1O` (some centres not stated), the Potency was “inactive”. For `COC(=O)Nc1nc2ccc(C(=O)c3ccccc3)cc2[nH]1`, the Potency was active: 1.48 µM. In the case of `O=C(O)c1ccc(-n2nc(-c3ccccc3O)nc2-c2ccccc2O)cc1`, the Potency was active: 14.8 µM. With `Cc1ccc(NC(=O)c2cccc(C(C)(C)C#N)c2)cc1Nc1ccc2ncn(C)c(=O)c2c1` the Potency was inconclusive: 20.9 µM [inhibitor, partial curve]. For `CCN(C)C(=O)Oc1cccc([C@H](C)N(C)C)c1`, the Potency was “inactive”. In the case of `COC(=O)[C@H](c1ccccc1Cl)N1CCc2sccc2C1`, the Potency was inconclusive: 33.2 µM [inhibitor, single point]. In the case of `O=c1[nH]c(-c2ccc(C(F)(F)F)cc2)nc2c1CSCC2`, the Potency was inconclusive: 29.6 µM [inhibitor, single point]. For `O=C(O)CCc1ccc(NCc2cccc(Oc3ccccc3)c2)cc1`, the Potency was “inactive”. With `CC1(O)CC(c2nc(-c3ccc4ccc(-c5ccccc5)nc4c3)c3c(N)nccn23)C1` (configuration not stated) the Potency was active: 5.9 µM. For `Cc1ccc(-c2ncn(-c3ccc(Nc4nccc(-c5cccc(N6CCOCC6)c5)n4)cc3)n2)cn1`, the Potency was active: 0.118 µM. With `Cn1c(=O)c2c(ncn2C)n(C)c1=O` the Potency was inconclusive: 13.2 µM [inhibitor, partial curve, poor fit].
